The list shows a part of the results. At the low end of the ranking the order means little.

The results in this text go back to publication PMC5892938.

In this assay the target is GST-SBP-SLBP (stem-loop binding protein) (UniProt Q14493). The assay is described as follows: targeted RNA Bind-n-Seq.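 Also: DESeq read counts versus GST-SBP nonspecific binding control pulldown.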 The following applies: RBNS binding buffer: 25 mM Tris pH 7.5, 150 mM KCl, 3 mM MgCl2, 0.1% Tween, 0.5 mg/mL BSA, 1 mM DTT; 27 nM protein, 750 pM RNA pool; temperature not stated; high values mean tight binding.
Take “GGUCACGUCUCAAUCAACUCACUAGAGGGGGGGAAAACCCCUUUACCCUCCAUUUCAACAGCUCGCAGUCAAG”: the binding signal (log2 fold change) is -0.153.
To “GGUCACGUCUCAAUCAACUCAAUUCCCAGGGAAAACCCUGGUUAACUCAACAGCUCGCAGUCAAG” belongs 0.0469; to “GGUCACGUCUCAAUCAACUCUUCAGAGGGGGGGAAAACCCCUUUACCCUCCAAAUCAACAGCUCGCAGUCAAG”, -0.358; to “GGUCACGUCUCAAUCAACUCAUCUUCCAGGGAAACCCCUGGUUAACUCAACAGCUCGCAGUCAAG”, 0.24.
For “GGUCACGUCUCAAUCAACUCAAAAGAGGGGGGGAAAACCCCUUUGCCCUCACCAUCAACAGCUCGCAGUCAAG”, the binding signal (log2 fold change) is -0.0463.
Turning to “GGUCACGUCUCAAUCAACUCAACUUCAGGAGUUUACUCCUGCUAUGUCAACAGCUCGCAGUCAAG”, the binding signal (log2 fold change) stood at 0.0449.
To “GGUCACGUCUCAAUCAACUCCACAGAGGGGGGGAAAACCCCUUUACCCUCAACAUCAACAGCUCGCAGUCAAG” belongs -0.181; to “GGUCACGUCUCAAUCAACUCCUUAGAGGGGGGGAAAACCCCUUUGCCCUCAUUUUCAACAGCUCGCAGUCAAG”, -0.0324; to “GGUCACGUCUCAAUCAACUCUUCCUCAGGAGUUUUCUCCUGCAUUUUCAACAGCUCGCAGUCAAG”, 0.102.
As for “GGUCACGUCUCAAUCAACUCCCAGGAGGGGGGGAAAACCCCUUUACCCUCAGAAUCAACAGCUCGCAGUCAAG”, the binding signal (log2 fold change) is -0.233.
As for “GGUCACGUCUCAAUCAACUCUACUUCAGGAGUUUACUCCUGCAAAUUCAACAGCUCGCAGUCAAG”, the binding signal (log2 fold change) is -0.0232.
Then “GGUCACGUCUCAAUCAACUCGCACGAGGGGGGGAAAACCCCUUUACCCUCAUUAUCAACAGCUCGCAGUCAAG”, with 0.0988.
To “GGUCACGUCUCAAUCAACUCUUCCCCCAGGGAAAGCCCUGGUAAACUCAACAGCUCGCAGUCAAG” belongs 0.0508; to “GGUCACGUCUCAAUCAACUCUUCCUCCAGGGAAAUCCCUGGCAUACUCAACAGCUCGCAGUCAAG”, 0.00978.
Turning to “GGUCACGUCUCAAUCAACUCUAUUUCAGGAGUUUACUCCUGUUUUUUCAACAGCUCGCAGUCAAG”, the binding signal (log2 fold change) is -0.0978.
To “GGUCACGUCUCAAUCAACUCUUCUUCAGGAGUUUCCUCCUGCUUAUUCAACAGCUCGCAGUCAAG” belongs 0.0526; to “GGUCACGUCUCAAUCAACUCAAUCUCCAGGGAAAGCCCUGGCAUUUUCAACAGCUCGCAGUCAAG”, 0.0734; to “GGUCACGUCUCAAUCAACUCUAACGAGGGGGGGAAAACCCCUUUACCCUCAAAAUCAACAGCUCGCAGUCAAG”, -0.0317.
To “GGUCACGUCUCAAUCAACUCAAUCUCAGGAGUUUGCUCCUGCUUUUUCAACAGCUCGCAGUCAAG” belongs 0.276; to “GGUCACGUCUCAAUCAACUCAUACGAGGGGGGGAAAACCCCUUUACCCUCAACAUCAACAGCUCGCAGUCAAG”, -0.658; to “GGUCACGUCUCAAUCAACUCUUAAGAGGGGGGGAAAACCCCUUUGCCCUCACCGUCAACAGCUCGCAGUCAAG”, 0.0238.
On to “GGUCACGUCUCAAUCAACUCCCACGAGGGGGGGAAAACCCCUUUACCCUCUCAUUCAACAGCUCGCAGUCAAG”, for which the binding signal (log2 fold change) was 0.296.
Turning to “GGUCACGUCUCAAUCAACUCUAAGGAGGGGGGGAAAACCCCUUUACCCUCAACAUCAACAGCUCGCAGUCAAG”, the binding signal (log2 fold change) is 0.128.
Take “GGUCACGUCUCAAUCAACUCAAUCCCAGGAGUUUUCUCCUGCUAUGUCAACAGCUCGCAGUCAAG”: the binding signal (log2 fold change) amounted to 0.1.
Then “GGUCACGUCUCAAUCAACUCAGUUCCCAGGGAAAGCCCUGGCUUAUUCAACAGCUCGCAGUCAAG”, with -0.403; and “GGUCACGUCUCAAUCAACUCCUAAGAGGGGGGGAAAACCCCUUUGCCCUCACAAUCAACAGCUCGCAGUCAAG”, with 0.0935; and “GGUCACGUCUCAAUCAACUCAUCCUCAGGAGUUUACUCCUGUUUAUUCAACAGCUCGCAGUCAAG”, with 0.153.
Turning to “GGUCACGUCUCAAUCAACUCUAGUCCAGGAGUUUUCUCCUGUUAUUUCAACAGCUCGCAGUCAAG”, the binding signal (log2 fold change) is -0.108.
On to “GGUCACGUCUCAAUCAACUCUCUAGAGGGGGGGAAAACCCCUUUGCCCUCAUCUUCAACAGCUCGCAGUCAAG”, for which the binding signal (log2 fold change) is -0.202.
As for “GGUCACGUCUCAAUCAACUCAUCGUCCAGGGAAACCCCUGGCUUUUUCAACAGCUCGCAGUCAAG”, the binding signal (log2 fold change) is -0.162.
To “GGUCACGUCUCAAUCAACUCUUUCUCCAGGGAAAUCCCUGGUUAUGUCAACAGCUCGCAGUCAAG” belongs 0.126; to “GGUCACGUCUCAAUCAACUCAUCGCCAGGAGUUUACUCCUGCUUAUUCAACAGCUCGCAGUCAAG”, -0.216; to “GGUCACGUCUCAAUCAACUCUAUCCCAGGAGUUUUCUCCUGCAAAUUCAACAGCUCGCAGUCAAG”, 0.0879.
To “GGUCACGUCUCAAUCAACUCUUCUCCCAGGGAAAACCCUGGCAAACUCAACAGCUCGCAGUCAAG” belongs 0.00504; to “GGUCACGUCUCAAUCAACUCUAGUCCAGGAGUUUACUCCUGUAUAUUCAACAGCUCGCAGUCAAG”, -0.234; to “GGUCACGUCUCAAUCAACUCAAUCCCAGGAGUUUUCUCCUGUAAUUUCAACAGCUCGCAGUCAAG”, 0.0213.
Then “GGUCACGUCUCAAUCAACUCAAUCCCCAGGGAAAUCCCUGGCUAACUCAACAGCUCGCAGUCAAG”, with 0.107.
For the sequence “GGUCACGUCUCAAUCAACUCUUCUCCAGGAGUUUUCUCCUGUUAACUCAACAGCUCGCAGUCAAG”, the binding signal (log2 fold change) was found to be 0.166.
For “GGUCACGUCUCAAUCAACUCUAUCUCCAGGGAAAGCCCUGGCAUUCUCAACAGCUCGCAGUCAAG”, the binding signal (log2 fold change) worked out at 0.181.
To “GGUCACGUCUCAAUCAACUCUAACGAGGGGGGGAAAACCCCUUUACCCUCAUAAUCAACAGCUCGCAGUCAAG” belongs 0.101.
Consider “GGUCACGUCUCAAUCAACUCAUCUCCCAGGGAAAACCCUGGUAAACUCAACAGCUCGCAGUCAAG”, for which the binding signal (log2 fold change) was 0.0283.
To “GGUCACGUCUCAAUCAACUCAACUUCCAGGGAAACCCCUGGUAAUUUCAACAGCUCGCAGUCAAG” belongs -0.0545; to “GGUCACGUCUCAAUCAACUCUUCCCCCAGGGAAAGCCCUGGUUUACUCAACAGCUCGCAGUCAAG”, 0.0369; to “GGUCACGUCUCAAUCAACUCUACUCCAGGAGUUUUCUCCUGUAAUUUCAACAGCUCGCAGUCAAG”, 0.0252.
To “GGUCACGUCUCAAUCAACUCUAUAGAGGGGGGGAAAACCCCUUUGCCCUCACUUUCAACAGCUCGCAGUCAAG” belongs 0.24; to “GGUCACGUCUCAAUCAACUCUUUCUCCAGGGAAAUCCCUGGCAUUCUCAACAGCUCGCAGUCAAG”, 0.174.
To “GGUCACGUCUCAAUCAACUCUAUCCCCAGGGAAACCCCUGGCAAUCUCAACAGCUCGCAGUCAAG” belongs -0.392; to “GGUCACGUCUCAAUCAACUCAACUCCCAGGGAAAACCCUGGUAAUUUCAACAGCUCGCAGUCAAG”, -0.0441; to “GGUCACGUCUCAAUCAACUCUAACGAGGGGGGGAAAACCCCUUUACCCUCCACAUCAACAGCUCGCAGUCAAG”, 0.0364.
“GGUCACGUCUCAAUCAACUCUUCCCCAGGAGUUUUCUCCUGCAUUCUCAACAGCUCGCAGUCAAG”: the binding signal (log2 fold change) turned out to be 0.131.
Take “GGUCACGUCUCAAUCAACUCUUUUUCAGGAGUUUACUCCUGUUAUGUCAACAGCUCGCAGUCAAG”: the binding signal (log2 fold change) is 0.0993.
Then “GGUCACGUCUCAAUCAACUCAUCGUCAGGAGUUUCCUCCUGUUUUUUCAACAGCUCGCAGUCAAG”, with 0.11; and “GGUCACGUCUCAAUCAACUCUUUCUCAGGAGUUUUCUCCUGUUUAUUCAACAGCUCGCAGUCAAG”, with -0.0246; and “GGUCACGUCUCAAUCAACUCAUACGAGGGGGGGAAAACCCCUUUGCCCUCACUUUCAACAGCUCGCAGUCAAG”, with -0.195.
To “GGUCACGUCUCAAUCAACUCAUCUCCAGGAGUUUUCUCCUGUAAAUUCAACAGCUCGCAGUCAAG” belongs 0.0718; to “GGUCACGUCUCAAUCAACUCUAAAGAGGGGGGGAAAACCCCUUUGCCCUCCAUAUCAACAGCUCGCAGUCAAG”, -0.0699; to “GGUCACGUCUCAAUCAACUCAUUUUCCAGGGAAAUCCCUGGUUAUUUCAACAGCUCGCAGUCAAG”, 0.054.
Then “GGUCACGUCUCAAUCAACUCUCACGAGGGGGGGAAAACCCCUUUGCCCUCAUAAUCAACAGCUCGCAGUCAAG”, with 0.161; and “GGUCACGUCUCAAUCAACUCAAUUCCAGGAGUUUCCUCCUGCAAAUUCAACAGCUCGCAGUCAAG”, with 0.105; and “GGUCACGUCUCAAUCAACUCUUUCUCAGGAGUUUCCUCCUGCAUACUCAACAGCUCGCAGUCAAG”, with -0.0332.
Turning to “GGUCACGUCUCAAUCAACUCUUUUUCAGGAGUUUCCUCCUGCUAUCUCAACAGCUCGCAGUCAAG”, the binding signal (log2 fold change) stood at 0.0115.
Then “GGUCACGUCUCAAUCAACUCACUAGAGGGGGGGAAAACCCCUUUGCCCUCAAUAUCAACAGCUCGCAGUCAAG”, with -0.44; and “GGUCACGUCUCAAUCAACUCAAUUUCAGGAGUUUACUCCUGCUAUCUCAACAGCUCGCAGUCAAG”, with -0.0512.
To “GGUCACGUCUCAAUCAACUCUUAAGAGGGGGGGAAAACCCCUUUACCCUCACAAUCAACAGCUCGCAGUCAAG” belongs 0.0176; to “GGUCACGUCUCAAUCAACUCAUUUCCAGGAGUUUUCUCCUGCAAUCUCAACAGCUCGCAGUCAAG”, 0.0708.
In the case of “GGUCACGUCUCAAUCAACUCCACGGAGGGGGGGAAAACCCCUUUACCCUCAUCCUCAACAGCUCGCAGUCAAG”, the binding signal (log2 fold change) is -0.149.
Regarding “GGUCACGUCUCAAUCAACUCAGUUUCAGGAGUUUCCUCCUGCUAUCUCAACAGCUCGCAGUCAAG”, the binding signal (log2 fold change) is 0.136.
To “GGUCACGUCUCAAUCAACUCAUUAGAGGGGGGGAAAACCCCUUUGCCCUCACUAUCAACAGCUCGCAGUCAAG” belongs -0.537; to “GGUCACGUCUCAAUCAACUCAUUAGAGGGGGGGAAAACCCCUUUACCCUCAACUUCAACAGCUCGCAGUCAAG”, -0.078.
To “GGUCACGUCUCAAUCAACUCAUCCUCCAGGGAAAACCCUGGCAAUCUCAACAGCUCGCAGUCAAG” belongs -0.0698; to “GGUCACGUCUCAAUCAACUCACACGAGGGGGGGAAAACCCCUUUGCCCUCAACAUCAACAGCUCGCAGUCAAG”, 0.529.
As to “GGUCACGUCUCAAUCAACUCUUAAGAGGGGGGGAAAACCCCUUUACCCUCAAAUUCAACAGCUCGCAGUCAAG”, the binding signal (log2 fold change) was -0.0482.
“GGUCACGUCUCAAUCAACUCUAUCGAGGGGGGGAAAACCCCUUUGCCCUCAACAUCAACAGCUCGCAGUCAAG”: the binding signal (log2 fold change) was -0.081.
